# Experimental data: the BET-seq Pho4 binding data (Le et al. 2018)
# The other results are listed elsewhere or left out. Values were computed here from the reads of four pooled replicates and scatter widely.
# Target: T1, Pho4 (S. cerevisiae) (UniProt P07270)
# T1 sequence: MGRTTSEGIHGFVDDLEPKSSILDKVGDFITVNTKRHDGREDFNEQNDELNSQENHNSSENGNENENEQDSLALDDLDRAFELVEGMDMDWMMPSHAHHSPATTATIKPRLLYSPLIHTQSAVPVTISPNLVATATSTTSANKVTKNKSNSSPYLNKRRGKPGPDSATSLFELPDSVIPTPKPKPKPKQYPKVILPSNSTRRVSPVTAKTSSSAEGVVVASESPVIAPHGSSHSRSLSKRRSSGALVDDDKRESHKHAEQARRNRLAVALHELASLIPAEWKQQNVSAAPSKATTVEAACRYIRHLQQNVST
# Test: relative binding free energy (BET-seq); higher = weaker binding
# Conditions: reference: library average
row,Sequence,relative binding free energy [kcal/mol]
1,GGTATCACGTGTTCGT,0.23
2,GTGAACACGTGATAGG,0.14
3,TAATGCACGTGGTGGT,-0.12
4,TAGAGCACGTGGAGGT,-0.12
5,TCACGCACGTGTGGGT,-0.23
6,TGTATCACGTGGGATT,0.09
7,TGGTGCACGTGGTCAT,-0.1
8,TTTTTCACGTGGGGGA,0.28
9,TGGTTCACGTGACCGG,0.38
10,GGAAGCACGTGGAGGT,-0.11
11,CATGGCACGTGCTTGA,0.13
12,CAGGGCACGTGTAAGG,-0.14
13,ATTCTCACGTGGTGTC,0.32
14,GATATCACGTGGAGAG,0.27
15,AGGCTCACGTGGATAT,0.37
16,GGATACACGTGTTGGA,-0.06
17,GGGCTCACGTGAAGTA,0.37
18,CTTAGCACGTGGGAGG,-0.1
19,GTAAGCACGTGAGTTT,0.32
20,TTAGGCACGTGCAAGG,-0.15
21,ATCGTCACGTGGGGCA,-0.01
22,ATATACACGTGTGTGA,0.02
23,TAGGACACGTGGTATA,-0.04

row,Sequence,relative binding free energy [kcal/mol]
1,ATGTTCACGTGACGTT,0.29
2,ACAAGCACGTGTGGGG,-0.12
3,GTTTTCACGTGAGTTC,0.39
4,TGATTCACGTGGGGTC,0.15
5,ATAGGCACGTGGGTGC,-0.23
6,TCTTTCACGTGTTGGC,0.37
7,TTCTACACGTGGTGTT,0.02
8,TTATGCACGTGCTGTT,-0.19
9,TTGAGCACGTGAGCCG,0.21
10,AGTAACACGTGGTTAG,-0.05
11,AATAGCACGTGGGATG,-0.14
12,TCGTACACGTGTGTCG,-0.05
13,TTGGACACGTGGACTG,0.13
14,GAAAGCACGTGTGTGA,-0.05
15,CATGGCACGTGATATT,0.06
16,AGTTACACGTGGACGG,0.14
17,CAGATCACGTGGGGTT,0.02
18,CAAGGCACGTGGCGGT,-0.25
19,TTTTTCACGTGTCAAT,0.34
20,AGTACCACGTGAGGGG,-0.08
21,CCTATCACGTGTGGGT,0.22
22,TGTGCCACGTGTATGG,-0.09
23,TTTATCACGTGGTGCT,0.05

row,Sequence,relative binding free energy [kcal/mol]
1,TTAGGCACGTGAAATG,0.14
2,TAGCTCACGTGGTGTT,0.18
3,TTATACACGTGTCGTT,0.09
4,TAAGGCACGTGTGATT,0.07
5,AACTTCACGTGTTAGT,0.35
6,CGCGGCACGTGTGTGG,-0.2
7,TGGCACACGTGGGTAA,-0.01
8,AAGTTCACGTGGCTTG,0.1
9,CTCGGCACGTGGGTAG,-0.27
10,TAGGGCACGTGGGAGT,-0.16
11,TTGTGCACGTGGCGCT,-0.15
12,GGTGGCACGTGTCCTG,-0.1
13,TGTGGCACGTGGAAGC,0.06
14,TTGCGCACGTGGGTGA,-0.24
15,TTTTTCACGTGACTTG,0.41
16,AGTGGCACGTGGTGGT,-0.18
17,TCTTGCACGTGGTTAA,-0.05
18,GTTATCACGTGATGTG,0.38
19,GTAATCACGTGTTATT,0.13
20,GGCTGCACGTGGTGAG,-0.03
21,TTAGGCACGTGGGGTA,-0.26
22,CGCAGCACGTGGTAGG,-0.23
23,TTATGCACGTGAGTCA,0.11

row,Sequence,relative binding free energy [kcal/mol]
1,TGTGACACGTGTGGCA,0.15
2,TTGGACACGTGTGTAT,0.15
3,TCATTCACGTGGTTAA,0.14
4,TGATGCACGTGTTCGT,-0.08
5,ATTGTCACGTGTACGT,0.14
6,TTTAACACGTGGATGG,0.02
7,GTCAGCACGTGATTGT,0.06
8,ATATGCACGTGGGTGC,-0.25
9,TCGACCACGTGGGGGG,-0.26
10,GCAGTCACGTGGGCGT,-0.07
11,GAAGACACGTGCGGGG,0.02
12,ATTGTCACGTGATGTA,0.24
13,GTTTGCACGTGTCGAG,0.07
14,ATGTGCACGTGACTAG,0.12
15,AATTTCACGTGAGTGG,0.32
16,TTGAACACGTGTTGTA,-0.05
17,TTTCGCACGTGTGGCT,-0.11
18,CATATCACGTGGTGGG,0.04
19,TAAAACACGTGTTGTT,-0.03
20,AGGTGCACGTGAAATT,0.2
21,TTGTGCACGTGCTTTT,-0.06
22,GGAGTCACGTGTATGA,0.25
23,AGTTTCACGTGTTGGT,0.22

row,Sequence,relative binding free energy [kcal/mol]
1,GGGGGCACGTGTGGCC,-0.09
2,GTATGCACGTGTAATT,0.06
3,TCTGGCACGTGAATGG,0.22
4,GGGGGCACGTGTGAGG,-0.04
5,TGTTACACGTGGTGTG,0.05
6,ATTGACACGTGAGAAT,0.38
7,TAAGCCACGTGTTGTG,0.02
8,TCTCTCACGTGGTTTG,0.18
9,GATCGCACGTGAATGT,0.3
10,GGGAGCACGTGGTTTT,0.07
11,GTGTCCACGTGGGGCG,-0.15
12,AGGCACACGTGAGTGT,0.16
13,GATGGCACGTGTTCTT,-0.06
14,GATGTCACGTGAGATT,0.43
15,GAACGCACGTGGTTGT,-0.04
16,AGTCTCACGTGTCGGG,0.22
17,GGGCACACGTGTGTGG,0.17
18,TTTGCCACGTGTATGT,-0.07
19,GGTGTCACGTGCCGGA,-0.04
20,CTGGCCACGTGGGGTA,-0.29
21,GGATGCACGTGGTCGG,-0.03
22,GTAAACACGTGAGGTT,0.3
23,TGAGTCACGTGTTTCT,0.17
